This note sets out measurements from patent US20250018038A1 (UNIVERSITY OF CHICAGO, published 2025).

Amino acid sequences for entries named in this document (tags omitted). Residues count along the entry.
UniProt O15392, residues 1-140: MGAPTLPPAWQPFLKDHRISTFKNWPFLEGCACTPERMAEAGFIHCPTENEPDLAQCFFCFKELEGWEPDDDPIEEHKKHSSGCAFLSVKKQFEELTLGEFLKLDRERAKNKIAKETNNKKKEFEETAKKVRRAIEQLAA

These are yes or no findings as the source states them, for the method shown. Some entries that bind do so weakly or less than the wild type.

Substrate in assay [1]: T1, INC-N
T1 sequence (chain, by the resolver, Biotinylated Avi tag, held on neutravidin; not in the letters): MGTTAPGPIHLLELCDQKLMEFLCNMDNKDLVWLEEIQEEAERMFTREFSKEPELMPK
In words: single point protein ELISA, 50 nM immobilised target. In general terms: ELISA stands for enzyme-linked immunosorbent assay.

The target of assay [2] is T2, Bor-C (Biotinylated Avi tag, held on neutravidin; not in the letters).
T2 construct: also called Bor C: 207-280; Borealin C-terminal domain; not shown: Avi tag, and any purification tag or linker
T2 chain: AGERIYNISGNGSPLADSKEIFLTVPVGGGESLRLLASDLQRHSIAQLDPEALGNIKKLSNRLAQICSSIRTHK
The assay is described as above. Here is the method:
(§1) To rapidly reconfirm the binding and specificity of the obtained Fabs after reformatting into the expression vectors single-point Fab ELISA was performed (FIG. 2-3). Briefly, 50 nM Avi-tagged targets were immobilized on the prepared NAV-coated and blocked with 0.5% BSA in PBS 96-well ELISA plates. The target coated plates were washed with appropriate buffer (TBST or PBST) and were incubated with 200 nM Fab for 20 minutes and then washed. The washed plates were incubated with protein L conjugated with HRP (1:5000 diluted in TBST) for 30 minutes. Plates were washed and the reaction was developed using the TMB chromogenic substrate (Thermofisher) and subsequently quenched with 1M HCl. Absorbance was read at 450 nm on Epoch plate reader.

Assay [3] concerns the target T3, Bor-N (Biotinylated Avi tag, held on neutravidin; not in the letters).
T3 construct: also called Bor N: 20-88; Borealin N-terminal domain; not shown: Avi tag, and any purification tag or linker
T3 chain: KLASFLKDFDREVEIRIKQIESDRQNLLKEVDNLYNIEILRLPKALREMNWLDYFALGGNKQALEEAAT
The description is as above. Here is the method: as §1

Assay [4] concerns the target Survivin (purified recombinant Survivin protein) (human) (UniProt O15392). In words: single point protein ELISA: 50 nM Avi-tagged target on neutravidin plate, 200 nM Fab, protein L-HRP.

B1: SUR-FL-47 (Fab, V domains shown)
VH: EVQLVESGGGLVQPGGSLRLSCAASGFNVSYSSIHWVRQAPGKGLEWVASIYSYYGYTSYADSVKGRFTISADTSKNTAYLQMNSLRAEDTAVYYCARWPHYWGQGVSSMDYWGQGTLVTVSS
VL: DIQMTQSPSSLSASVGDRVTITCRASQSVSSAVAWYQQKPGKAPKLLIYSASSLYSGVPSRFSGSRSGTDFTLTISSLQPEDFATYYCQQSYYFPVTFGQGTKVEIKR
notes: also called SUR-FL-47 Fab
As to B1, the binding result is given as “no binding (tested: 200 nM)” in assay [1], “no binding (tested: 200 nM)” in assay [2], “no binding (tested: 200 nM)” in assay [3] and “binds” in assay [4].

B2: SUR-N-53 (Fab, V domains shown)
VH: EVQLVESGGGLVQPGGSLRLSCAASGFNVSSSYIHWVRQAPGKGLEWVASIYSYYGSTSYADSVKGRFTISADTSKNTAYLQMNSLRAEDTAVYYCARSFTEKWAYSWAIDYWGQGTLVTVSS
VL: DIQMTQSPSSLSASVGDRVTITCRASQSVSSAVAWYQQKPGKAPKLLIYSASSLYSGVPSRFSGSRSGTDFTLTISSLQPEDFATYYCQQYAWSLFTFGQGTKVEIKR
notes: also called SUR-N-53 Fab
With B2, the binding entry is recorded as “no binding (tested: 200 nM)” in assay [3] and “binds” in assay [4].

B3: SUR-FL-24 (Fab, V domains shown)
VH: EVQLVESGGGLVQPGGSLRLSCAASGFNFYSSSIHWVRQAPGKGLEWVASIYPYYSSTSYADSVKGRFTISADTSKNTAYLQMNSLRAEDTAVYYCARWYHYYSVQQYGLDYWGQGTLVTVSS
VL: DIQMTQSPSSLSASVGDRVTITCRASQSVSSAVAWYQQKPGKAPKLLIYSASSLYSGVPSRFSGSRSGTDFTLTISSLQPEDFATYYCQQSTSFPITFGQGTKVEIKR
notes: also called SUR-FL-24 Fab
In the case of B3, the binding entry in assay [1] is given as “no binding (tested: 200 nM)”; in assay [2], “no binding (tested: 200 nM)”; in assay [3], “no binding (tested: 200 nM)”; in assay [4], “binds”.

B4: SUR-N-28 (Fab, V domains shown)
VH: EVQLVESGGGLVQPGGSLRLSCAASGFNFSSSYIHWVRQAPGKGLEWVASIYSSYGYTSYADSVKGRFTISADTSKNTAYLQMNSLRAEDTAVYYCARSYYYQYSGGWRGYYHALDYWGQGTLVTVSS
VL: DIQMTQSPSSLSASVGDRVTITCRASQSVSSAVAWYQQKPGKAPKLLIYSASSLYSGVPSRFSGSRSGTDFTLTISSLQPEDFATYYCQQSSSSLITFGQGTKVEIKR
notes: also called SUR-N-28 Fab
As for B4, the values for the binding result in assay [1], in assay [2] and in assay [4] were “no binding (tested: 200 nM)”, “no binding (tested: 200 nM)” and “binds”, respectively.

B5: SUR-FL-25 (Fab, V domains shown)
VH: EVQLVESGGGLVQPGGSLRLSCAASGFNVYSSSIHWVRQAPGKGLEWVASIYPYYSYTSYADSVKGRFTISADTSKNTAYLQMNSLRAEDTAVYYCARWKKSRSGGMWGMDYWGQGTLVTVSS
VL: DIQMTQSPSSLSASVGDRVTITCRASQSVSSAVAWYQQKPGKAPKLLIYSASSLYSGVPSRFSGSRSGTDFTLTISSLQPEDFATYYCQQYSSFPITFGQGTKVEIKR
notes: also called SUR-FL-25 Fab
On to B5, for which the binding result in assay [2] was “no binding (tested: 200 nM)”; in assay [3], “no binding (tested: 200 nM)”; in assay [4] it was “binds”.

B6: SUR-FL-42 (Fab, V domains shown)
VH: EVQLVESGGGLVQPGGSLRLSCAASGFNFSYYYIHWVRQAPGKGLEWVASISPSYSSTSYADSVKGRFTISADTSKNTAYLQMNSLRAEDTAVYYCARFAPGFGWWYMGMDYWGQGTLVTVSS
VL: DIQMTQSPSSLSASVGDRVTITCRASQSVSSAVAWYQQKPGKAPKLLIYSASSLYSGVPSRFSGSRSGTDFTLTISSLQPEDFATYYCQQYIPSLITFGQGTKVEIKR
Consider B6, for which the binding entry in assay [2] and in assay [3] was “no binding (tested: 200 nM)” each time.

B7: SUR-FL-52 (Fab, V domains shown)
VH: EVQLVESGGGLVQPGGSLRLSCAASGFNFSSSSIHWVRQAPGKGLEWVASIYPYSGSTYYADSVKGRFTISADTSKNTAYLQMNSLRAEDTAVYYCARWDFGYYYWYSAIDYWGQGTLVTVSS
VL: DIQMTQSPSSLSASVGDRVTITCRASQSVSSAVAWYQQKPGKAPKLLIYSASSLYSGVPSRFSGSRSGTDFTLTISSLQPEDFATYYCQQYWYTLITFGQGTKVEIKR
notes: also called SUR-FL-52 Fab
For the molecule B7, the binding entry is given as “no binding (tested: 200 nM)” in assay [3] and “binds” in assay [4].

B8: SUR-N-36 Fab (Fab, V domains shown)
VH: EVQLVESGGGLVQPGGSLRLSCAASGFNVSYSSIHWVRQAPGKGLEWVASIYPYYGYTSYADSVKGRFTISADTSKNTAYLQMNSLRAEDTAVYYCAREEYSTVQYWYYYWYPGMDYWGQGTLVTVSS
VL: DIQMTQSPSSLSASVGDRVTITCRASQSVSSAVAWYQQKPGKAPKLLIYSASSLYSGVPSRFSGSRSGTDFTLTISSLQPEDFATYYCQQYMYSPITFGQGTKVEIKR
As for B8, the figures for the binding result in assay [2], in assay [3] and in assay [4] were “no binding (tested: 200 nM)”, “no binding (tested: 200 nM)” and “binds”, respectively.

B9: SUR-FL-31 (Fab, V domains shown)
VH: EVQLVESGGGLVQPGGSLRLSCAASGFNFSSSSIHWVRQAPGKGLEWVASISSYSGYTYYADSVKGRFTISADTSKNTAYLQMNSLRAEDTAVYYCARGKQKSYGQWYFYYWAIDYWGQGTLVTVSS
VL: DIQMTQSPSSLSASVGDRVTITCRASQSVSSAVAWYQQKPGKAPKLLIYSASSLYSGVPSRFSGSRSGTDFTLTISSLQPEDFATYYCQQSSSSLITFGQGTKVEIKR
notes: also called SUR-FL-31 Fab
B9: the binding result was “no binding (tested: 200 nM)” in assay [1], “no binding (tested: 200 nM)” in assay [2] and “binds” in assay [4].

B10: SUR-FL-29 Fab (Fab, V domains shown)
VH: EVQLVESGGGLVQPGGSLRLSCAASGFNVSYYSIHWVRQAPGKGLEWVASIYPYYGSTSYADSVKGRFTISADTSKNTAYLQMNSLRAEDTAVYYCARWQFYGYYHGLYFTDLGIDYWGQGTLVTVSS
VL: DIQMTQSPSSLSASVGDRVTITCRASQSVSSAVAWYQQKPGKAPKLLIYSASSLYSGVPSRFSGSRSGTDFTLTISSLQPEDFATYYCQQSGGFPITFGQGTKVEIKR
As to B10, the binding result is “no binding (tested: 200 nM)” in assay [1], “no binding (tested: 200 nM)” in assay [2], “no binding (tested: 200 nM)” in assay [3] and “binds” in assay [4].

B11: SUR-FL-22 (Fab, V domains shown)
VH: EVQLVESGGGLVQPGGSLRLSCAASGFNFYSSYIHWVRQAPGKGLEWVASIYSYSSSTSYADSVKGRFTISADTSKNTAYLQMNSLRAEDTAVYYCARAGWYWYYGIQFAFDYWGQGTLVTVSS
VL: DIQMTQSPSSLSASVGDRVTITCRASQSVSSAVAWYQQKPGKAPKLLIYSASSLYSGVPSRFSGSRSGTDFTLTISSLQPEDFATYYCQQQRYGSLITFGQGTKVEIKR
notes: also called SUR-FL-22 Fab
Regarding B11, the results for the binding result in assay [2], in assay [3] and in assay [4] were “no binding (tested: 200 nM)”, “no binding (tested: 200 nM)” and “binds”, respectively.

B12: SUR-N-09 (Fab, V domains shown)
VH: EVQLVESGGGLVQPGGSLRLSCAASGFNFYYSSIHWVRQAPGKGLEWVASISPYSGYTSYADSVKGRFTISADTSKNTAYLQMNSLRAEDTAVYYCARYMYYGWALDYWGQGTLVTVSS
VL: DIQMTQSPSSLSASVGDRVTITCRASQSVSSAVAWYQQKPGKAPKLLIYSASSLYSGVPSRFSGSRSGTDFTLTISSLQPEDFATYYCQQGQWWGLITFGQGTKVEIKR
notes: also called SUR-N-09 Fab
For B12, the binding entry in assay [3] was “no binding (tested: 200 nM)”; in assay [4] it was “binds”.

B13: SUR-N-37 (Fab, V domains shown)
VH: EVQLVESGGGLVQPGGSLRLSCAASGFNVSYSSIHWVRQAPGKGLEWVASISSYYGSTSYADSVKGRFTISADTSKNTAYLQMNSLRAEDTAVYYCARSTYYSWYPYYYAMWHQHGMDYWGQGTLVTVSS
VL: DIQMTQSPSSLSASVGDRVTITCRASQSVSSAVAWYQQKPGKAPKLLIYSASSLYSGVPSRFSGSRSGTDFTLTISSLQPEDFATYYCQQSPMYSLITFGQGTKVEIKR
notes: also called SUR-N-37 Fab
As to B13, the binding result in assay [4] was “binds”.

B14: SUR-FL-43 (Fab, V domains shown)
VH: EVQLVESGGGLVQPGGSLRLSCAASGFNISYSSIHWVRQAPGKGLEWVASISSSSGYTSYADSVKGRFTISADTSKNTAYLQMNSLRAEDTAVYYCARKWWYYYGRDLALDYWGQGTLVTVSS
VL: DIQMTQSPSSLSASVGDRVTITCRASQSVSSAVAWYQQKPGKAPKLLIYSASSLYSGVPSRFSGSRSGTDFTLTISSLQPEDFATYYCQQQGYRGLITFGQGTKVEIKR
Regarding B14, the binding result in assay [2] and in assay [3] was “no binding (tested: 200 nM)” in each case.

B15: SUR-FL-46 (Fab, V domains shown)
VH: EVQLVESGGGLVQPGGSLRLSCAASGFNFYSSYIHWVRQAPGKGLEWVAYISSYSGYTSYADSVKGRFTISADTSKNTAYLQMNSLRAEDTAVYYCARYSRVGMYPYGGLDYWGQGTLVTVSS
VL: DIQMTQSPSSLSASVGDRVTITCRASQSVSSAVAWYQQKPGKAPKLLIYSASSLYSGVPSRFSGSRSGTDFTLTISSLQPEDFATYYCQQSYYYSSLFTFGQGTKVEIKR
Take B15: the binding result in assay [1] is recorded as “no binding (tested: 200 nM)”; in assay [2], “no binding (tested: 200 nM)”; in assay [3] it was “no binding (tested: 200 nM)”; in assay [4] it was “binds”.
